In the supplement of paper PMC12067093, “Discovery and optimisation of a covalent ligand for TRIM25 and its application to targeted protein ubiquitination” (Chemical Science, 2025):
Targets with the largest changes are over-represented here; the source holds about 21,000 in all.

Compound: CC1Cc2ccccc2N1C(=O)C1CCCN(C1)C(=O)CCl (mixture of isomers) [TRIM25 ligand 11 (diastereomer mixture)]
Test: probe-labelled cysteine peptide fold change vs DMSO (competition) (log2 fold change); higher = less target engagement (more negative = stronger competition)
Conditions: THP-1, incubation time: 4 h
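Also: competitive chemoproteomic profiling in live THP-1 cells with an iodoacetamide desthiobiotin (IA-DTB) probe, comparing probe-labelled peptide intensities in compound-treated cells against DMSO-treated controls.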

Row | Target | probe-labelled cysteine peptide fold change (10 µM) | probe-labelled cysteine peptide fold change (50 µM)
1 | PRMT7_Q9NVM4_366+368_QMRPVCDCQAHLLWNRPR (UniProt Q9NVM4) | 0.0126 | -0.062
2 | PDXDC1_Q6P996_425_HSCDALNR (UniProt Q6P996) | 0.0114 | -0.0777
3 | PPM1G_O15355_241_GTEAGQVGEPGIPTGEAGPSCSSASDK (UniProt O15355) | 0.0659 | -0.175
4 | PFAS_O15067_336_IRDVQCTGR (UniProt O15067) | -0.0959 | 0.0849
5 | PDXK_O00764_5_MEEECR (UniProt O00764) | 0.156 | 0.121
6 | PON2_Q15165_283_VLELDTLVDNLSIDPSSGDIWVGCHPNGQK (UniProt Q15165) | 0.0993 | 0.0969
7 | PHF23_Q9BUL5-4_5_MPGDCR (UniProt Q9BUL5) | 1.01 | 1.12
8 | PLPP6_Q8IY26_55_ATAVDPTCAR (UniProt Q8IY26) | 0.0708 | -0.177
9 | PPFIBP2_Q8ND30_685_CAIHVLHVNK (UniProt Q8ND30) | 0.226 | 0.421
10 | PPP2R2A_P63151_13_AGAGGGNDIQWCFSQVK (UniProt P63151) | -0.0885 | -0.145
11 | PRKCI_P41743_157_AHCAICTDR (UniProt P41743) | 0.573 | 0.293
12 | PLAUR_Q03405_39_VEECALGQDLCR (UniProt Q03405) | 0.0182 | -0.119
13 | PIK3CD_O00329_382_QRLEFDINICDLPR (UniProt O00329) | 0.0375 | 0.229
14 | PEBP1_P30086_133_CDEPILSNR (UniProt P30086) | 0.116 | 0.0755
15 | POLR2A_P24928_1407_HLALLCDTMTCR (UniProt P24928) | 0.0209 | 0.0484
